Structures can show the parent of a compound that is named as a salt. Over roughly 2,000 compounds, “fractional viability relative to vehicle” has its median near 0.91; the lowest 2% begin near 0.045. The list shows a part of the results.
Test system: TYKNU
Assay: fractional viability relative to vehicle; TYKNU is a high-grade serous ovarian cancer line; higher = less growth inhibition
Conditions: 72 h
How it was run: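 TYKNU control cells or lentiCRISPRv2 knockout derivatives were plated at 500 cells per well in duplicate into drug-stamped 384-well plates holding a ~2100-compound library at 2 or 10 μM. Culture was in RPMI 1640 with 10% FBS at 37 °C in 5% CO2, with 72 h of drug treatment. Viability was measured by Cell Titer Glo luminescence, and the averaged duplicate treatment wells were normalised to duplicate control wells at the same plate position.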

[1] = 2uM, genotype: DNM1L knockout (sgDNM1L #1)
[2] = 2uM, genotype: sgCTRLA1 (non-targeting control)
[3] = 10uM, genotype: DNM1L knockout (sgDNM1L #1)
[4] = 10uM, genotype: sgCTRLA1 (non-targeting control)

Compound	fractional viability [1]	fractional viability [2]	fractional viability [3]	fractional viability [4]
O=C(O)CCc1ccc(NCc2cccc(Oc3ccccc3)c2)cc1	0.796	0.921	0.837	0.78
CCS(=O)(=O)N1CC(CC#N)(n2cc(-c3ncnc4[nH]ccc34)cn2)C1	1.04	1.16	0.852	1.1
O=C1NCC2(CCN(CCc3ccccc3)CC2)O1 [Fenspiride HCl]	0.849	0.982	0.843	1.08
Clc1ccc2c(c1)CCc1cccnc1C2=C1CCNCC1 [Desloratadine]	1.12	0.887	0.774	0.859
C[C@H]1CO[C@@H]2Cn3cc(C(=O)NCc4ccc(F)cc4F)c(=O)c(O)c3C(=O)N12	0.658	0.907	0.74	0.66
Nc1nccc(Oc2ccc(NC(=O)c3c[nH]cc(-c4ccc(F)cc4)c3=O)cc2F)c1Cl	1.09	1.05	0.598	0.808
O=C(c1ccc(F)cc1)C1CCN(CCn2c(=O)[nH]c3ccccc3c2=O)CC1 [Ketanserin]	0.953	1.17	0.887	1.07
NC(=O)Nc1cc(-c2cccc(F)c2)sc1C(=O)N[C@H]1CCCNC1	0.229	0.152	0.102	0.102
C[C@H]1[C@H](C)CC[C@]2(C(=O)O)CC[C@]3(C)C(=CC[C@@H]4[C@@]5(C)CC[C@H](O)C(C)(C)[C@@H]5CC[C@]43C)[C@H]12 [Ursolic Acid]	0.897	1.13	0.743	1.04
CCCCCCCCCCCCCCCC(=O)OC[C@H](O)[C@H]1OC(=O)C(O)=C1O [L-Ascorbyl 6-palmitate]	0.995	1.14	0.984	1.07
Cc1csc(-c2nnc(Nc3ccc(Oc4ncccc4-c4ccnc(N)n4)cc3)c3ccccc23)c1	0.581	0.498	0.471	0.495
Nc1nc2c(ncn2COC(CO)CO)c(=O)[nH]1 [Ganciclovir]	0.966	1.05	0.837	0.896
COc1c(C)cnc(Cn2cnc3c(Cl)nc(N)nc32)c1C	0.286	0.209	0.277	0.246
COc1ccc2c(Oc3ccc(NC(=O)c4c(C)n(CC(C)(C)O)n(-c5ccccc5)c4=O)nc3)ccnc2c1	1.3	1.14	0.706	0.877
NCCCCCC(=O)O [_6-__-_Aminocaproic acid]	1.07	1.09	0.981	1.15
CC(C)CCNC(=O)[C@H](CC(C)C)NC(=O)[C@H]1O[C@@H]1C(=O)O [Loxistatin Acid (E-64C)]	0.865	0.938	0.959	0.802
c1ccc2c(CCNc3ccc(Nc4ccncc4)cc3)c[nH]c2c1	0.284	0.385	0.0485	0.0461
Cc1nc2c([nH]1)-c1ccccc1N(C(=O)c1ccc(NC(=O)c3ccccc3-c3ccccc3)cc1)CC2 [Conivaptan HCl]	0.933	1.06	1.06	0.97
Cc1cnc(Nc2ccc(OCCN3CCCC3)cc2)nc1Nc1cccc(S(=O)(=O)NC(C)(C)C)c1	0.352	0.378	0.0362	0.0573
Cn1ncnc1[C@H]1c2n[nH]c(=O)c3cc(F)cc(c23)N[C@@H]1c1ccc(F)cc1	0.659	0.824	0.601	0.673
O=C(Cc1ccccc1)Nc1nnc(CCSCCc2nnc(NC(=O)Cc3ccccc3)s2)s1	0.84	1.02	0.818	0.781

Compound	fractional viability [1]	fractional viability [2]	fractional viability [3]	fractional viability [4]
COc1ccc(-c2nc(N3CCOCC3)c3sc(CN(C)c4ncc(C(=O)NO)cn4)cc3n2)cn1	0.0583	0.0505	0.0565	0.0395
COc1cc(-c2ncn(/C=C\C(=O)OC(C)C)n2)cc(C(F)(F)F)c1	0.131	0.143	0.119	0.15
COc1ccc(Cl)c(Nc2nc3ccccc3nc2NS(=O)(=O)c2cccc(NC(=O)C(C)(C)N)c2)c1 [Pilaralisib (XL147)]	0.781	0.837	0.572	0.555
CCCNC(=O)NS(=O)(=O)c1ccc(Cl)cc1 [Chlorpropamide]	0.887	1.17	0.842	1
Clc1cccc(Cl)c1NC1=NCCN1 [Clonidine HCl]	0.948	1.06	0.875	1.06
CN(C)S(=O)(=O)c1ccc2c(c1)/C(=C/c1cc3c([nH]1)CCCC3)C(=O)N2	0.562	0.815	0.234	0.264
C[C@]12C=CC(=O)N[C@@H]1CC[C@@H]1[C@@H]2CC[C@]2(C)[C@@H](C(=O)Nc3cc(C(F)(F)F)ccc3C(F)(F)F)CC[C@@H]12 [Dutasteride]	0.866	0.982	0.799	0.954
CO[C@H]1/C=C/O[C@@]2(C)Oc3c(C)c(O)c4c(O)c(c5c(nc6cc(C)ccn65)c4c3C2=O)NC(=O)/C(C)=C\C=C\[C@H](C)[C@H](O)[C@@H](C)[C@@H](O)[C@@H](C)[C@H](OC(C)=O)[C@@H]1C [Rifaximin]	0.936	1.09	0.912	1.03
CC(C)NC[C@@H](C(=O)N1CCN(c2ncnc3c2[C@H](C)C[C@H]3O)CC1)c1ccc(Cl)cc1	0.895	0.899	0.589	0.773
Cc1ccc([C@@H]2O[C@H](CO)[C@@H](O)[C@H](O)[C@H]2O)cc1Cc1ccc(-c2ccc(F)cc2)s1 [Canagliflozin]	0.914	1.05	0.615	0.955
CC(C)(C)c1cc(C(C)(C)C)c(NC(=O)c2c[nH]c3ccccc3c2=O)cc1O [Ivacaftor (VX-770)]	0.856	1.08	0.301	0.796
COc1cccc(C=NCCN=Cc2cccc(OC)c2[O-])c1[O-].[Cl-].[Mn+3]	0.805	0.978	0.756	0.897
COCC(=O)NC/C=C/c1ccc2ncnc(Nc3ccc(Oc4ccc(C)nc4)c(C)c3)c2c1	1.07	1.08	0.886	1.06
Oc1cc2c(cc1O)C(c1ccccc1)CNCC2 (centres undefined)	0.767	0.909	0.716	0.675
Cn1c(=O)c2c(ncn2CC2OCCO2)n(C)c1=O [Doxofylline]	0.857	1.18	0.815	1.14
C=CC(=O)Nc1cccc(Sc2nc(Nc3ccc(N4CCN(C)CC4)cc3)ncc2Cl)c1	0.965	0.898	0.0379	0.0337
CCCCNc1ncc(C(=O)NCc2ccc(-n3ccnc3)cc2)c(NC2CCC(O)CC2)n1 (centres undefined)	1.06	1.06	0.296	0.324
CCOC(=O)[C@H]1O[C@@H]1C(=O)N[C@@H](CC(C)C)C(=O)NCCC(C)C [Aloxistatin]	0.853	0.91	0.817	0.78
COc1cc(Nc2c(C#N)cnc3cc(OCCCN4CCN(C)CC4)c(OC)cc23)c(Cl)cc1Cl [Bosutinib (SKI-606)]	0.41	0.574	0.138	0.111
CCC1(c2ccccc2)C(=O)NCNC1=O [Primidone]	0.866	1.14	1.04	1.09
CCCCc1oc2ccc(NS(C)(=O)=O)cc2c1C(=O)c1ccc(OCCCN(CCCC)CCCC)cc1 [Dronedarone HCl]	0.712	0.919	0.0442	0.0545

Compound	fractional viability [1]	fractional viability [2]	fractional viability [3]	fractional viability [4]
O=C(Nc1cccnc1)c1cc(-c2ccnc(F)c2)ccc1OCc1ccccc1	1.21	0.944	0.701	0.621
O=C1CC[C@@H](C(=O)N2CSC[C@H]2C(=O)O)N1 [Pidotimod]	1.04	1.14	0.806	1.04
Oc1c(Cl)cc(Cl)c2cccnc12 [Chloroxine]	0.964	0.845	0.107	0.109
c1ccc(-c2ccc(C(c3ccccc3)n3ccnc3)cc2)cc1 (centres undefined) [Bifonazole]	0.859	0.932	1.01	0.895
CN(C)CCC(c1ccc(Br)cc1)c1ccccn1 (centres undefined) [Brompheniramine hydrogen maleate]	0.969	1.04	0.863	0.952
COc1ccc(Cl)cc1NC(=O)Nc1cc(C)nc2ccccc12	0.989	1.01	0.343	0.25
C[C@@](Cc1ccc(O)c(O)c1)(NN)C(=O)O [Carbidopa]	0.955	0.982	0.938	0.918
C=CC(=O)Nc1cccc(Oc2nc(Nc3ccc(N4CCN(C)CC4)cc3)ncc2Cl)c1	0.338	0.355	0.157	0.146
CCOc1nc2cccc(C(=O)O)c2n1Cc1ccc(-c2ccccc2-c2nnn[nH]2)cc1 [Candesartan]	0.89	0.961	0.82	1
Nc1ncnc2c1ncn2[C@@H]1O[C@H](CO)[C@@H](O)[C@@H]1O [Vidarabine]	1.15	1.15	1.12	0.998
CC1CCN(CC[C@H]2CCCN2S(=O)(=O)c2cccc(O)c2)CC1	1.07	1.18	0.771	1.15
CCOC(=O)C1=C(N)Oc2ccc(Br)cc2C1C(C#N)C(=O)OCC (centres undefined)	0.886	1.04	0.55	0.935
CCCCOc1cc(C(=O)OCCN(CC)CC)ccc1N [Oxybuprocaine HCl]	1	1.08	0.819	1.07
O=C1O[C@H]([C@@H](O)CO)C([O-])=C1O.[Na+] [Sodium ascorbate]	0.772	1.02	0.93	1.09
O=[N+]([O-])c1ccc(Nc2nc(N3CCOCC3)nc(N3CCOCC3)n2)cc1	0.733	0.98	0.837	0.811
N#C/C(=C1/SC[C@@H](c2ccc(Cl)cc2Cl)S1)n1ccnc1 [Luliconazole]	0.853	1.06	0.768	1.07
Nc1nc(OCc2cc(Br)cs2)c2[nH]cnc2n1 [Lomeguatrib]	0.545	0.82	0.19	0.346
CCCCOc1ccc(C(=O)Nc2ccc(F)cc2F)cc1	1.02	1.19	0.752	1.06
CC(C)Oc1ccc2c(=O)c(-c3ccccc3)coc2c1 [Ipriflavone (Osteofix)]	0.78	0.976	0.963	1.07
